According to PubChem BioAssay AID588342 (National Center for Advancing Translational Sciences (NCATS), 2011):
Screen size: about 360,000 compounds; about 25,000 (6.9%) were called active. The inconclusive results got no clear call from the source; some entries with a clear call stand among them for comparison. Calls follow the shape of the dose curve; as a rule, active = well fitted inhibition curve with a large enough effect; inconclusive = small, poorly fitted or top-dose-only effect; inactive = flat fitted curve, though single readings scatter. A potency beside an inconclusive call is a rough fit, not a confirmed value.

These compounds were tested against Luciferin 4-monooxygenase (Photinus pyralis) (UniProt P08659) (assay: qHTS profiling assay for firefly luciferase inhibitor/activator using purifed enzyme and Km concentrations of substrates (counterscreen for miR-21 project)). Conditions: purified FLuc, luminescence inhibition; activity change, negative = inhibition: at 57.5 µM (top of the series).
Chain of UniProt P08659 (P08659 whole entry, looked up): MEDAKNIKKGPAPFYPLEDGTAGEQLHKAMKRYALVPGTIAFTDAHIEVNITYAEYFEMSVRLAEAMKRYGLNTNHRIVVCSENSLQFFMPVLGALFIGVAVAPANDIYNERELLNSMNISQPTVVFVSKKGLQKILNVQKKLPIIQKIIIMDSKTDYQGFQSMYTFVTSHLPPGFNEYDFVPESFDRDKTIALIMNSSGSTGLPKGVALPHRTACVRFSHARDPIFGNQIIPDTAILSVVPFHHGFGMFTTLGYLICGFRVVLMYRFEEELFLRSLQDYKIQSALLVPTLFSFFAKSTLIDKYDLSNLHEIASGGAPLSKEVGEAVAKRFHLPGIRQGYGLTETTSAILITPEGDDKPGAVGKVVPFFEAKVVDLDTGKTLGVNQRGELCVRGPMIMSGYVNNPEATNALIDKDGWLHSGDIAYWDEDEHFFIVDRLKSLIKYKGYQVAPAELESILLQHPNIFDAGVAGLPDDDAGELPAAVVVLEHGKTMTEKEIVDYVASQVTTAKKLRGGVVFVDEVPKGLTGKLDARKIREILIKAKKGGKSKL
Outline: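 Biochemical qHTS of compounds, final roughly 60 µM downward over six points, against 10 nM purified firefly luciferase using Km concentrations of substrates (10 uM D-luciferin, 10 uM ATP) in Tris acetate pH 7.5 buffer; luminescence output.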
Also: nearly all actives have a fitted effect of over 55% in size.
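For activity change, negative = inhibition in this document: plate controls were vehicle for no effect and reference inhibitor for full effect.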
Potency is read from the fitted curve at half-maximal effect; tags tell the direction and shape of the fitted curve.

Row | Structure (SMILES) | Potency | activity change, negative = inhibition
1 | CCCNC(=O)C1CC(=O)N(c2ccc(OCc3ccc(F)cc3)cc2)C1 (stereo not drawn) | active: 4.78 µM | 
2 | CCOC(=O)c1ccc(Nc2nc(C)cc(=O)[nH]2)cc1 | inconclusive: 37.9 µM [inhibitor, partial curve, poor fit] | 
3 | Cc1ccc(/C=C2\SC(=S)N(NS(=O)(=O)c3ccc(C)cc3)C2=O)cc1 | inconclusive: 21.3 µM [inhibitor, partial curve, poor fit] | 
4 | Cc1ccc(C2(C)NC(=O)N(CC(=O)Nc3nc(-c4ccccn4)cs3)C2=O)cc1 (stereo not drawn) | inconclusive: 37.9 µM [inhibitor, partial curve, poor fit] | 
5 | Cc1ccc(NC(=O)C2CCCN(c3nnc(C)c4c(C)n(-c5ccccc5)nc34)C2)c(Cl)c1 (stereo not drawn) | inactive | 
6 | O=C(COc1ccccc1Cl)OCc1cc(=O)n2nc(-c3cccs3)sc2n1 | inactive | 
7 | O=C(O)c1cc2[nH]c3c(c2cc1Cl)CCCC3 | inconclusive: 33.8 µM [inhibitor, partial curve, poor fit] | 
8 | Cc1ccc(-c2csc(Nc3ccc(S(N)(=O)=O)cc3)n2)o1 | inconclusive: 21.3 µM [inhibitor, partial curve, poor fit] | 
9 | CCOc1cccc(NC(=O)/C(C#N)=C\c2cn(CC(=O)O)c3ccccc23)c1 | inconclusive: 33.8 µM [inhibitor, single point] | 
10 | COc1ccc(/C=C/C(=O)c2ccc3c(c2)OCCO3)cc1[N+](=O)[O-] | active: 6.75 µM | 
11 | Cc1ccccc1OCCNC(=O)c1ccc2ccccc2n1 | active: 4.78 µM | 
12 | O=S(=O)(O)c1ccc(N=Nc2ccccc2)cc1 | inconclusive: 30.1 µM [inhibitor, partial curve] | 
13 | O=C(O)c1ccc(CNCc2ccc(Cl)cc2)s1 | inactive | 
14 | COc1ccc(-c2cc(-c3n[nH]c(=S)n3-c3ccccc3OC)[nH]n2)cc1 | inconclusive: 23.9 µM [inhibitor, partial curve] | 
15 | Cc1noc(NS(=O)(=O)c2ccc(NC(=O)/C=C/c3ccc(Br)cc3)cc2)c1C | inconclusive: 30.1 µM [inhibitor, single point] | 
16 | O=C(O)c1cccc(-c2ccc(/C=N/NC(=O)C3COc4ccccc4O3)o2)c1 (stereo not drawn) | active: 23.9 µM | 
17 | O=C(c1ccccc1)c1cccc(NC(=O)c2ccc(Br)o2)c1 | active: 23.9 µM | 
18 | COc1ccc(/C=N/NC(=O)c2cccnc2)cc1CSc1ccccn1 | inconclusive: 26.9 µM [inhibitor, single point] | 
19 | Cc1cc(C(=O)NCc2cc(C)n(C)n2)sc1-c1ccccc1 | inconclusive: 16.9 µM [inhibitor, partial curve] | 
20 | Cc1c(-c2nc(-c3ccc4c(c3)OCO4)no2)nnn1-c1ccc(Br)cc1F | inconclusive: 8.49 µM [inhibitor, full curve] | 
21 | O=C1CC(c2ccsc2)c2ccc3ccccc3c2N1 (stereo not drawn) | inconclusive: 30.1 µM [inhibitor, partial curve, poor fit] | 
22 | CC(=O)N1CCN(c2ccc(NC(=O)c3ccccc3Br)cc2Cl)CC1 | inconclusive: 30.1 µM [inhibitor, partial curve, poor fit] | 
23 | Cc1nc(N)sc1-c1csc(Nc2ncccn2)n1 | active: 3.01 µM | 
24 | O=C(Cn1c(=O)oc2cc(S(=O)(=O)N3CCCCCC3)ccc21)Nc1cccc(C(F)(F)F)c1 | inactive | 
25 | COc1ccc(-c2nc(N)n(C(=O)Cc3ccccc3)n2)cc1 | inconclusive: 13.5 µM [inhibitor, partial curve] | 

Row | Structure (SMILES) | Potency | activity change, negative = inhibition
26 | O=C(NCC1CCCO1)c1ccc(Cl)c(S(=O)(=O)Nc2ccccc2)c1 (stereo not drawn) | inactive | 
27 | COc1cccc2sc(Nc3nc(-c4ccccn4)cs3)nc12 | active: 12 µM | 
28 | Cc1ccc(N=C2NC(=O)/C(=C\c3ccc(C)s3)S2)cc1 | inconclusive: 7.57 µM [inhibitor, partial curve] | 
29 | CN=C1C=C/C(=N/N=c2\ccn(O)cc2C)C=C1C | active: 15.1 µM | 
30 | C=CCNC(=S)NNC(=O)C(CCCC)CC(C)(C)O (stereo not drawn) | inactive | 
31 | O=C(Nc1nccs1)c1cn2ccccc2n1 | active: 1.35 µM | 
32 | CCOCCCNC(=O)c1ccc(OC)cc1 |  | inactive: 2.81% [at 2.3 µM]
33 | Cc1cc(C(=O)N/N=C/c2cccs2)n[nH]1 | inconclusive: 19 µM [inhibitor, single point] | 
34 | N#C/C(=C(/O)C(Cl)c1ccccc1)c1nc2ccccc2s1 (stereo not drawn) | inconclusive: 30.1 µM [inhibitor, single point] | 
35 | O=C(Nc1ccsc1C(=O)O)c1ccc(Cl)cc1 | active: 8.49 µM | 
36 | O=C(O)c1ccc2ncc(NC(=O)c3ccc(F)cc3)c(=O)n2c1 | inconclusive: 26.9 µM [inhibitor, partial curve, poor fit] | 
37 | Cc1nc(NC(=O)CCc2ccccc2)ccc1Br | inconclusive: 30.1 µM [inhibitor, single point] | 
38 | CC(C)c1ccc(NS(=O)(=O)c2ccc3[nH]cc(C(=O)NC4CCCC4)c(=O)c3c2)cc1 | inconclusive: 10.7 µM [inhibitor, partial curve] | 
39 | Cc1ccc(N2CC3=C(C2=O)C(c2ccc(Br)cc2)NC(=O)N3C)cc1 (stereo not drawn) | inactive | 
40 | Cc1ccc(/C=C2/C(=O)N=C(N)N2C)s1 | inactive | 
41 | Cc1ccc(C(=O)Nc2ncccc2O)o1 | inconclusive: 23.9 µM [inhibitor, partial curve, poor fit] | 
42 | Cc1occc1C(=O)OCC(=O)Nc1ccc(F)cc1 | inconclusive: 26.9 µM [inhibitor, single point] | 
43 | COc1ccc(C(=O)Nc2cccc(NC(=O)c3cccs3)c2)cc1 | active: 9.53 µM | 
44 | CC(=O)c1c(-c2ccccc2)[nH]c2ccccc12 | inconclusive: 37.9 µM [inhibitor, partial curve, poor fit] | 
45 | COc1ccc(C(CC(=O)Nc2ccc(F)c(Cl)c2)N2Cc3ccccc3C2=O)cc1OC (stereo not drawn) | inconclusive: 23.9 µM [inhibitor, partial curve, poor fit] | 
46 | CCOc1ccc(-c2nc(CSCC(=O)NC3CCCc4ccccc43)c(C)o2)cc1 (stereo not drawn) | inconclusive: 37.9 µM [inhibitor, single point] | 
47 | COc1ccc(/C=C/C(=O)OCC(=O)Nc2cccc(C(C)=O)c2)cc1 | inconclusive: 33.8 µM [inhibitor, partial curve, poor fit] | 
48 | CC(=O)Cc1c(C(=O)O)c(C)nn1-c1ccccc1 | inconclusive: 33.8 µM [inhibitor, partial curve, poor fit] | 
49 | Cc1[nH]n2c(=O)cc(-c3ccccc3Cl)nc2c1-c1ccccc1 | inconclusive: 7.57 µM [inhibitor, partial curve] | 
50 | O=C1CCN(S(=O)(=O)c2ccccc2)N1 | inactive | 

Row | Structure (SMILES) | Potency | activity change, negative = inhibition
51 | CCN1CCN(c2c(Cl)cccc2NC(=O)c2ccc([N+](=O)[O-])cc2)CC1 | inactive | 
52 | CCn1c(SCc2ccccc2)nnc1-c1nonc1NC(C)=O | inactive | 
53 | O=C(/C=C/c1ccccc1)NCCSCc1ccccc1 | inconclusive: 30.1 µM [inhibitor, partial curve, poor fit] | 
54 | Cc1ccc(CSc2nsc(C)c2C#N)cc1 | inconclusive: 37.9 µM [inhibitor, single point] | 
55 | Brc1ccc(-c2nnc(-c3cccc(Br)c3)o2)cc1 | active: 9.53 µM | 
56 | O=C(Nc1ccc(N2CCOCC2)cc1)c1cnccn1 | active: 1.9 µM | 
57 | Cc1cc(=O)oc2cc(NC(=O)c3ccnn3C)ccc12 | inconclusive: 6.01 µM [inhibitor, partial curve, poor fit] | 
58 | O=C1N/C(=N/O)S/C1=C/c1cccnc1 | inconclusive: 23.9 µM [inhibitor, single point] | 
59 | N#Cc1ccc(NC(=O)C2=COCCO2)cc1 | inconclusive: 21.3 µM [inhibitor, partial curve, poor fit] | 
60 | CC(C)(C)c1ccc(-c2nnc(SCCN3C(=O)c4ccccc4C3=O)o2)cc1 | active: 15.1 µM | 
61 | CN(C)c1ccc(Nc2nc(N)c([N+](=O)[O-])c(N3CCOCC3)n2)cc1 | inconclusive: 21.3 µM [inhibitor, partial curve, poor fit] | 
62 | CN(C1CCCCC1)S(=O)(=O)c1ccc(S(=O)(=O)N(CC(=O)Nc2ccccc2)C2CC2)cc1 | inactive | 
63 | CCn1nccc1C(=O)Nc1ccc(Cl)cc1Cl | inconclusive: 30.1 µM [inhibitor, partial curve, poor fit] | 
64 | O=C(CCc1c[nH]c2ccccc12)N/N=C/c1ccc2c(c1)OCO2 | inconclusive: 26.9 µM [inhibitor, partial curve, poor fit] | 
65 | COc1cccc(CNc2cccc3cccnc23)c1O | inconclusive: 19 µM [inhibitor, single point] | 
66 | O=C1OC(/C(=C\Nc2cc(Cl)ccc2O)[N+](=O)[O-])c2ccccc21 (stereo not drawn) | inconclusive: 26.9 µM [inhibitor, partial curve, poor fit] | 
67 | O=C(c1ccc(-n2cccn2)cc1)N1CCc2ccccc2C1 | inconclusive: 16.9 µM [inhibitor, partial curve] | 
68 | Cc1cc(-c2onc3ccc(Cl)cc23)ccc1O | inconclusive: 16.9 µM [inhibitor, partial curve] | 
69 | Cc1ccc(C(=O)/C=C2\NCC(C)NC2=O)cc1 (stereo not drawn) | active: 1.2 µM | 
70 | Cc1ccn2cc(-c3cc4ccccc4oc3=O)nc2c1 | active: 0.426 µM | 
71 | O=C1S/C(=C\c2cccs2)C(=O)N1c1ccc(O)cc1 | inconclusive: 4.78 µM [inhibitor, full curve] | 
72 | O=C(Nc1ccc(N2CCCCC2)cc1)c1ccc(F)cc1F | active: 1.35 µM | 
73 | CCOC(=O)/C=C1\SCC(=O)N1CC(=O)Nc1ccc2c(c1)CCC2 | inconclusive: 21.3 µM [inhibitor, partial curve, poor fit] | 
